In PubChem BioAssay AID504706 (National Center for Advancing Translational Sciences (NCATS), 2011):
Screen size: about 320,000 compounds; about 200 (0.062%) were called active. Inconclusive results, whose numbers are uncertain, are shown with a selection of clear calls. Calls come from the whole dose curve; as a rule, active = well fitted activation curve with a large enough effect; inconclusive = small, poorly fitted or top-dose-only effect; inactive = no such curve, though single readings can be large or run the other way. Potencies of inconclusive entries are left out as doubtful fits.

Assay: qHTS assay for re-activators of p53 using a Luc reporter; note: nearly all actives have a fitted effect of over 45% in size; for activity change, positive = activation: % of control where 0% means no effect
Conditions: H1299 p53-A138V BP100-luciferase reporter, luminescence, 24 h; series mostly up to 92.2 µM; activity change, positive = activation: at the top concentration
In short: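 p53-null H1299 cells stably carrying temperature-sensitive p53-A138V and a BP100-luciferase reporter were pinned with compounds (4-point, 1:5 series) and held 24 hrs at 37 deg C. Luminescence was read 10 min after detection reagent.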
Potency is the fitted concentration of half-maximal effect; tags give direction and shape of the fitted curve.

SMILES | Potency | activity change, positive = activation
NN/C(=C\[N+](=O)[O-])Nc1ccccc1 | inconclusive [activator, partial curve, poor fit] | 
O=C(NCCCn1ccnc1)c1ccc(Br)cc1 |  | inactive: -0.806%
CCN(CC)C(=O)OCc1c(-c2ccccc2)ncc2ccccc12 | inconclusive [activator, full curve, poor fit] | 
Cc1cc(O)ccc1Nc1nc(-c2cccnc2)cs1 | inconclusive [activator, partial curve, poor fit] | 
O=C(Nc1ccc(SC(F)F)cc1)c1ccc2nccnc2c1 | inconclusive [activator, full curve, poor fit] | 
C/C(=N\Nc1nc2ccccc2[nH]1)c1ccc2c(c1)OCO2 |  | inactive: -0.678%
Cc1cc(OCC(=O)N[C@@H](Cc2ccccc2)c2nc3ccccc3[nH]2)ccc1Cl | inconclusive [activator, single point] | 
COc1cc(Cl)ccc1NC(=S)N(CCN(C)C)C(C)c1ccncc1 (centres undefined) |  | inactive: -4.46%
CCOC(=O)NC1(NC2CCCCC2)Oc2ccccc2O1 | inconclusive [activator, single point] | 
O=C(OCC(=O)N1CCOCC1)c1ccc2ccccc2c1O | inconclusive [activator, full curve, poor fit] | 
CN1C(=O)C2(OCC(CO)([N+](=O)[O-])CO2)c2ccccc21 (centres undefined) | inconclusive [activator, partial curve, poor fit] | 
BrC(=C\c1ccccc1)/C=N/N1CCN(c2ccccn2)CC1 | inconclusive [activator, full curve, poor fit] | 
Cc1ccc(Nc2nc(C3CC3)cs2)cc1 | inconclusive [activator, full curve, poor fit] | 
Cc1cccc(/C=C2\CCC(=C3SCCCS3)C2=O)c1 | inconclusive [activator, full curve, poor fit] | 
O=C(NC1CCCCCCC1)NC1CCCCC1 | inconclusive [activator, full curve, poor fit] | 
O=C(Nc1ccccc1)c1n[nH]c(Cn2cncn2)n1 |  | inactive: 1.97%
CCOC(=O)c1oc2cccc(O)c2c1C | inconclusive [activator, partial curve, poor fit] | 
CC(=O)N1CCN(Cc2nc3cc([N+](=O)[O-])ccc3n2C)CC1 |  | inactive: -0.134%
NS(=O)(=O)c1cccnc1Nc1ccc(Cl)c(Cl)c1 |  | inactive: 0.367%
COc1ccc(/C(N)=N/OC(=O)CSc2ccccc2)cc1 | inconclusive [activator, partial curve, poor fit] | 
CN(C)CCN(C(=O)C1CCN(S(=O)(=O)c2cccs2)CC1)c1nc2ccccc2s1 | inconclusive [activator, partial curve, poor fit] | 
Cc1ccc(C(=O)NCC(=O)N2CCCCCC2)cc1 | inconclusive [activator, partial curve, poor fit] | 
COc1cccc(C2=NOC(C(=O)NCc3cccs3)C2)c1 (centres undefined) | inconclusive [activator, partial curve, poor fit] | 

SMILES | Potency | activity change, positive = activation
Cc1cc([N+](=O)[O-])nn1Cc1ccc(C(=O)N/N=C/c2ccccc2)cc1 | inconclusive [activator, single point] | 
O=C(NCCc1ccccc1)c1ccc(NCC2CCCO2)c([N+](=O)[O-])c1 (centres undefined) | inconclusive [activator, full curve, poor fit] | 
COCCCNC(=O)Nc1ccc(Br)cc1Cl | inconclusive [activator, partial curve, poor fit] | 
Cc1nc(Cl)sc1C(=O)Nc1ccc(Cl)cc1 |  | inactive: 27.6%
O=C(NCC(O)c1ccccc1)Nc1cccs1 (centres undefined) | inconclusive [activator, single point] | 
O=C(Oc1ccc(=O)n(-c2ccccc2)n1)c1ccc(Cl)cc1 |  | inactive: 3.11%
CC(C)Oc1ccc(C(=O)NC(=S)N2CCOCC2)cc1 | inconclusive [activator, single point] | 
CCOC(=O)c1c(C)oc2c1c(C(c1cccnc1)N1CCCCC1)c(O)c1ccccc12 (centres undefined) | inconclusive [activator, partial curve, poor fit] | 
O=C(NCc1ccccc1)N1CCCC1 | inconclusive [activator, single point] | 
CCC(Sc1nc2ccccc2c(=O)n1CCN1CCOCC1)C(=O)NCc1cccnc1 (centres undefined) | inconclusive [activator, partial curve, poor fit] | 
O=C(N/N=C/c1cccs1)c1ccc2c(c1)OCO2 | inconclusive [activator, full curve, poor fit] | 
COc1ccc2[nH]c3c(N4CC(C)OC(C)C4)ncnc3c2c1 (centres undefined) |  | inactive: -1.66%
COc1cc(-c2noc(CCCC(=O)Nc3cccnc3)n2)cc(OC)c1OC |  | inactive: 2.76%
NC(=O)CNc1ncc(C(F)(F)F)cc1Cl |  | inactive: -0.43%
CC1=C/C(=C/N(C)c2ccccc2)C(=O)S1 | inconclusive [activator, partial curve, poor fit] | 
COc1ccccc1-c1nc(-c2ccc(C)nc2OC)no1 | inconclusive [activator, single point] | 
c1ccc(N2CCN(c3ccccc3)C2c2cccs2)cc1 | inconclusive [activator, partial curve, poor fit] | 
COc1cc(OC)cc(-c2nc3cc(C)ccc3o2)c1 | inconclusive [activator, full curve, poor fit] | 
CC(C)C1N=C(c2ccc3c(c2)OCO3)CC(c2ccccc2O)N1 (centres undefined) | inconclusive [activator, partial curve, poor fit] | 
COCc1cc(Sc2ccc(Cl)cc2)nc(C)n1 |  | inactive: -1.93%
FC(F)(F)c1cnc(Oc2cccc3ccccc23)c(Cl)c1 | inconclusive [activator, partial curve, poor fit] | 
COc1cccc(-c2nc(N3CCCC3)c3ccccc3n2)c1O |  | inactive: 1.59%
Cc1ccc(C)c(-c2csc(N/N=C/c3ccco3)n2)c1 |  | inactive: 6.66%

SMILES | Potency | activity change, positive = activation
Cc1ccc(-c2cc(=O)[nH][nH]2)c(C)c1 |  | inactive: 4.67%
Cc1sc2nc3c4ccccc4c(NCc4ccco4)nn3c(=O)c2c1C | inconclusive [activator, partial curve, poor fit] | 
CC/C(=N\NC(=O)c1c[nH]c2ccccc12)c1cccs1 | inconclusive [activator, partial curve, poor fit] | 
CC1CCN(C(=O)c2cc(-c3ccc4c(c3)OCO4)on2)CC1 | inconclusive [activator, partial curve, poor fit] | 
CC(C)(C)OC(=O)NCCCC[C@H](NC(=O)c1nc[nH]c1C(=O)NCc1ccc(CNC(=O)OC(C)(C)C)cc1)C(=O)OC(C)(C)C |  | inactive: 11.8%
Oc1ccc(N=Nc2n[nH]c(-c3ccccc3)n2)cc1 | inconclusive [activator, full curve, poor fit] | 
Cc1c(C(=O)Nc2ccccn2)oc2ccccc12 | inconclusive [activator, full curve, poor fit] | 
Nc1c(C(=O)c2ccccc2)oc2ccccc12 | inconclusive [activator, full curve, poor fit] | 
CCC(=O)Nc1ccc(-c2csc(C)n2)cc1 | inconclusive [activator, partial curve, poor fit] | 
N#CCc1nc(CSc2nc3ccccc3s2)cs1 | inconclusive [activator, partial curve, poor fit] | 
CCOC(=O)C1=C(O)C(=O)NC(c2ccccc2)=C(OCC)C1 | inconclusive [activator, single point] | 
CCCN(CC(=O)Nc1ccccc1C)C(=O)c1ccc(COc2ccccc2)cc1 |  | inactive: -2.12%
CC(=O)Nc1cccc(OCC(=O)Nc2ccc(F)cc2)c1 | inconclusive [activator, partial curve, poor fit] | 
Cc1cccc(NC(=O)N2CCCC2C(=O)NCc2cccs2)c1 (centres undefined) |  | inactive: -0.859%
COc1ccc(C(=O)O/N=C(\N)c2cccc(C)c2)cc1OC | inconclusive [activator, full curve, poor fit] | 
Cc1ccc(NC(=O)c2onc(C)c2Cl)cc1 | inconclusive [activator, full curve, poor fit] | 
CCN(CC(=O)Nc1cc(S(=O)(=O)N2CCCCC2)ccc1C)Cc1ccccc1 |  | inactive: -12.4%
O=C(CN1CCOCC1)Nc1ccc(C2CCCCC2)cc1 | inconclusive [activator, partial curve, poor fit] | 
FC(F)(F)c1nnc2c(Sc3ccccn3)nc3ccccc3n12 | inconclusive [activator, full curve, poor fit] | 
O=C(N/N=C/c1ccc[nH]1)c1sc2ccccc2c1Cl | inconclusive [activator, partial curve, poor fit] | 
COc1cccc(COC(=O)Nc2ccccc2F)c1 | inconclusive [activator, full curve, poor fit] | 
CCCCn1c(N)c(N(CCC(C)C)C(=O)C2CC(=O)N(c3ccccc3OCC)C2)c(=O)[nH]c1=O (centres undefined) | inconclusive [activator, single point] | 
O=C(Nc1ccccc1F)c1ccc(CSc2ccccc2)o1 | inconclusive [activator, full curve, poor fit] | 
